# Test results taken from patent publication US20180185408A1, “ANTIFUNGAL NYLON-3 POLYMERS AND COMBINATION THERAPY USING THEM TO TREAT FUNGAL INFECTIONS” (priority 2016, published 2018).
# What was measured:
# [1] = tested on: Candida albicans; assay: Checkerboard microdilution synergy (FIC); assay type: cell-based
# [2] = tested on: Aspergillus fumigatus; assay: Checkerboard microdilution synergy (FIC); assay type: cell-based; details: for MIC: Aspergillus fumigatus; for MIC / MIC azole alone: 48 h, 35° C.; for FICazole / MIC azole in combination: […] 10^5 cells/mL
smiles,measurement,setting,value
"OC(Cn1cncn1)(Cn1cncn1)c1ccc(F)cc1F [FLC, fluconazole]",MIC azole in combination,[1],<0.3 µg/mL
same,MIC azole in combination,"[1]; MM:TM (40:60) with Fluconazole, isolate K1 (Fluconazole Resistant), […]10^5 cells/mL, 30° C.",0.4 µg/mL
same,MIC azole in combination,"[1]; NM20 with Fluconazole, C. albicans K1, […] 10^5 cells/mL",0.4 µg/mL
same,MIC azole in combination,"[1]; NM20 with Fluconazole, C. albicans SC5314, […] 10^5 cells/mL",0.4 µg/mL
same,MIC azole in combination,"[1]; Table 43, MM:TM with Fluconazole, isolate K1, […] 10^5 cells/mL",0.4 µg/mL
same,MIC azole in combination,"[1]; Table 43, MM:TM with Fluconazole, isolate SC5314, […] 10^5 cells/mL",<0.3 µg/mL
"CCC(C)n1ncn(-c2ccc(N3CCN(c4ccc(OCC5COC(Cn6cncn6)(c6ccc(Cl)cc6Cl)O5)cc4)CC3)cc2)c1=O (centres unmarked) [Itraconazole, itraconazole]",MIC,"[2]; read-out: MIC azole alone, MM:TM with ITRA, isolate 08-12-12-13 Cyp51 [TR34/L98H], Avg., 48 hours",76.5 µM
same,MIC,"[2]; read-out: MIC azole alone, MM:TM with ITRA, isolate 08-19-02-61 Cyp51 [TR34/L98H], Avg., 48 hours",> 68 µM
same,MIC,"[2]; read-out: MIC azole alone, MM:TM with ITRA, isolate 08-31-08-91 Cyp51 [TR34/L98H], Avg., 48 hours",> 68 µM
same,MIC,"[2]; read-out: MIC azole alone, MM:TM with ITRA, isolate 08-36-03-25 Cyp51 [TR34/L98H], Avg., 48 hours",> 68 µM
same,MIC,"[2]; read-out: MIC azole alone, MM:TM with ITRA, isolate 12-7505220 Cyp51 [TR34/L98H], Avg, 48 hours",76.5 µM
same,MIC,"[2]; read-out: MIC azole alone, MM:TM with ITRA, isolate 12-7505446 Cyp51 [TR34/L98H], Avg., 48 hours",19.1 µM
same,MIC,"[2]; read-out: MIC azole alone, MM:TM with ITRA, isolate D5 Cyp51 [G54E], Avg., 48 hours",> 68 µM
same,MIC,"[2]; read-out: MIC azole alone, MM:TM with ITRA, isolate D9 Cyp51 [M220K], Avg., 48 hours",> 68 µM
same,MIC azole alone,"[2]; F11628, ITRA as single agent",>48 µg/mL and 72 µg/mL
same,MIC azole alone,"[2]; F16216, ITRA as single agent",>48 µg/mL and 64 µg/mL
same,FICazole,"[2]; MM:TM with Itraconazole, isolate AF293 (Senstitive)",0.200
same,FICazole,"[2]; MM:TM with Itraconazole, isolate CEA10 (Sensitive)",0.100
same,MIC azole in combination,"[2]; MM:TM with Itraconazole, isolate F11628 (Resistance)",0.4 µg/mL
same,MIC azole in combination,"[2]; MM:TM with Itraconazole, isolate F16216 (Resistance)",32 µg/mL
"CC[C@@H]([C@H](C)O)n1ncn(-c2ccc(N3CCN(c4ccc(OC[C@@H]5CO[C@@](Cn6cncn6)(c6ccc(F)cc6F)C5)cc4)CC3)cc2)c1=O [Posaconazole, posaconazole]",MIC,"[2]; read-out: MIC azole alone, CEA10, POS as single agent",1.07 µM
same,MIC azole alone,"[2]; F16216, POS as single agent, listed as POS",1.5 μg/mL and 2.14 μM
same,FICazole,"[2]; MM:TM with posaconazole, isolate AF293 (Senstitive)",0.500
same,MIC azole in combination,"[2]; MM:TM with posaconazole, isolate CEA10 (Sensitive)",0.1 µg/mL
same,MIC azole in combination,"[2]; MM:TM with posaconazole, isolate F11628 (Resistance)",0.1 µg/mL
same,MIC azole in combination,"[2]; MM:TM with posaconazole, isolate F16216 (Resistance)",1.0 µg/mL

# Values joined by “and” are separate entries in the source; they are usually repeats but may differ in a detail not shown here. Identical values can stand only once. Like-named read-outs stand apart in the source and are kept apart here.
